The campaign covered roughly 310,000 compounds. About 18,000 (5.8%) were called active. This list was built around the results that the source calls inconclusive (neither active nor inactive); the mix of calls is not that of the screen. The call rests on the fitted dose curve; in most records, active means well fitted inhibition curve with a large enough effect; inconclusive means small, poorly fitted or top-dose-only effect, or another doubt; inactive means no such curve, though single readings can be large or run the other way. Potencies of inconclusive entries are left out as doubtful fits.
Experiment: Primary qHTS for delayed death inhibitors of the malarial parasite plastid, 48 hour incubation
Conditions: P. falciparum luciferase growth in erythrocytes; series mostly up to 28.7 µM; activity change, negative = inhibition: at the top concentration
How it was run: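 Luciferase-expressing P. falciparum in infected erythrocytes (2% hematocrit, 0.1% parasitemia final) in RPMI 1640/0.5% Albumax were exposed to compound for 48 hours at 37 C, 5% CO2; growth read as luminescence.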
On the % scale 0 is the no-effect control and ±100 the full control effect; potency means the concentration at half of the fitted maximal effect; tags describe the fitted curve by direction and shape.

Compound	Potency	activity change, negative = inhibition
CC(C)CC(NC(=O)OC(C)(C)C)c1cn([C@@H](CCCCNC(=O)OC(C)(C)C)C(=O)N2CCN(C(=O)OC(C)(C)C)CC2)nn1 (stereo not given in full)	inconclusive [inhibitor, full curve, poor fit]	–
Cc1nc2c(C)cccc2cc1C(=O)N/N=C/c1cccnc1	–	inactive: 2.06%
O=C(C1CC1)N(Cc1ccco1)c1nc(-c2ccccc2)cs1	inconclusive [inhibitor, single point]	–
O=C(Cn1c2[n+](c3ccccc31)CC(O)CS2)c1ccccc1 (stereo not given)	active: 2.08 µM	–
CC(C)c1ccc(N(CC(=O)N/N=C/c2ccc(OC3CSC3)cc2)S(=O)(=O)c2ccccc2)cc1	inconclusive [inhibitor, partial curve, poor fit]	–
CC1CCCC(NC(=O)CSc2ncccn2)C1C (stereo not given)	–	inactive: 0%
C=CCc1c(C)nc(C)nc1N/N=C/c1ccccc1O	inconclusive [inhibitor, single point]	–
Cc1cc(Cl)ccc1OCC(=O)NCc1ccncc1	–	inactive: 10.1%
COc1ccc(S(=O)(=O)N2CCCCC2)cc1NC(=O)CN1C(=O)NC(C)(C2CC2)C1=O (stereo not given)	inconclusive [inhibitor, single point]	–
Cc1ccc(C2OCC3(CO)COC(c4ccc(C)cc4)N23)cc1 (stereo not given)	inconclusive [inhibitor, single point]	–
COc1ccccc1OCCNC(=O)C(c1ccccc1)c1ccccc1	inconclusive [inhibitor, partial curve]	–
Cc1cc(NC(=O)c2cc(-c3cccc(OCC(C)C)c3)nc3ccccc23)no1	inconclusive [inhibitor, full curve]	–
CCN(CC)S(=O)(=O)c1ccc(N/N=C(\C)c2ccc(OC)cc2O)nc1	active: 13.1 µM	–
COc1ccc2c(c1OC)CN(C)CCc1cc3c(cc1C(=O)C2)OCO3	inconclusive [inhibitor, partial curve, poor fit]	–
Cc1cc(Cl)ccc1OCC(=O)NCC(c1cccs1)N1CCOCC1 (stereo not given)	active: 13.1 µM	–
Cc1ccc(C)n1C1CCS(=O)(=O)C1 (stereo not given)	inconclusive [inhibitor, single point]	–
O=C(O)c1nc(NCCc2ccccc2)ncc1Cl	–	inactive: 28.3%
O=C(O)c1ccccc1NCN1C(=O)C2CC=C(Cl)CC2C1=O (stereo not given)	–	inactive: 33.2%
O=C(Nc1nc(-c2ccccn2)cs1)c1cc2ccccc2o1	inconclusive [inhibitor, single point]	–
Nc1c(N(CCC2=CCCCC2)C(=O)Cc2ccc(F)cc2)c(=O)[nH]c(=O)n1Cc1ccccc1	active: 9.28 µM	–
O=C(Nc1cccnc1)c1ccc(N2CCCC2)c([N+](=O)[O-])c1	–	inactive: -7.38%
CCCCCC(C)NC(=S)NC(=O)c1cc(S(=O)(=O)N2CCOCC2)ccc1C (stereo not given)	inconclusive [inhibitor, single point]	–
CC(=O)c1nn(-c2ccc(Br)cc2)cc1C(=O)c1ccco1	inconclusive [inhibitor, single point]	–
c1ccc(Oc2ccc(-c3ccnc4nc(N5CCOCC5)nn34)cc2)cc1	inconclusive [inhibitor, partial curve]	–

Compound	Potency	activity change, negative = inhibition
O=S(=O)(c1ccccc1)N1CCN(C(=S)Nc2ccc(F)cc2)CC1	inconclusive [inhibitor, single point]	–
COc1ccc(C(=O)NCC(c2cccs2)N2CCc3ccccc32)cc1OC (stereo not given)	inconclusive [inhibitor, partial curve]	–
O=C1Nc2ccccc2/C1=C\c1cccn1-c1ccc(OC(F)(F)F)cc1	inconclusive [inhibitor, single point]	–
COc1ccc(C(=O)N2CCN(C(C)=O)CC2)cc1S(=O)(=O)N1CCOCC1	–	inactive: -19%
O=S1(=O)CCC(NC(=S)N2CCCCC2)C1 (stereo not given)	–	inactive: -1.79%
Cn1c(CNC(=O)C(Cc2ccccc2)NC(=O)c2ccccc2)cc(=O)n(C)c1=O (stereo not given)	inconclusive [inhibitor, partial curve, poor fit]	–
CCOC(=O)c1c(NC(=O)C2C3C=CC(C3)C2C(=O)O)sc2c1CC(C)(C)OC2 (stereo not given)	inconclusive [inhibitor, single point]	–
CCC1(C)Cc2ccccc2-c2nc(NN)[nH]c(=O)c21 (stereo not given)	inconclusive [inhibitor, single point]	–
c1ccc(NC2=NCCN2CCC2CCCC2)cc1	–	inactive: 26.8%
COc1cc2c3c(c1)C1(C(=O)N3C(C)(C)C=C2C)C(C#N)=C(N)Oc2cc(O)ccc21 (stereo not given)	inconclusive [inhibitor, single point]	–
CC(c1ccccc1)c1nnc(NC(=O)Nc2ccccc2F)s1 (stereo not given)	–	inactive: -11.7%
CCOC(=O)CSc1nc2c(sc(=S)n2CCc2ccccc2)c(=O)n1Cc1ccco1	inconclusive [inhibitor, partial curve, poor fit]	–
CN(Cc1nc2ccccc2n1C)S(C)(=O)=O	–	inactive: 38.3%
COC(=O)c1ccc[n+](CC(=O)c2ccc(Br)cc2)c1	inconclusive [inhibitor, partial curve, poor fit]	–
COc1ccccc1N1CCN(C(c2cccs2)C(C)NC(=O)C(=O)N2CCCCC2)CC1 (stereo not given)	inconclusive [inhibitor, single point]	–
O=S(=O)(NCCc1ccc2c(c1)OCCO2)c1cccs1	–	inactive: -2.66%
CCOC(=O)CC1C(=O)NCCN1C(=O)COc1ccc(Br)cc1C (stereo not given)	–	inactive: 13.7%
Cc1cccc(C(=O)N2CCN(Cc3nc4sc5c(c4c(=O)[nH]3)CCCC5)CC2)c1	inconclusive [inhibitor, single point]	–
CCn1c2ccccc2c2cc(C3C(C#N)=C(C)NC(C)=C3C#N)ccc21	inconclusive [inhibitor, single point]	–
O=C1/C(=C/c2cccnc2)SC(=S)N1Nc1ccccc1	inconclusive [inhibitor, single point]	–
O=C(C(NS(=O)(=O)c1cccs1)c1ccccc1)N1CCN(c2ccccc2F)CC1 (stereo not given)	inconclusive [inhibitor, full curve]	–
C/C(=N/Nc1nc(-c2ccccc2)c(CC(=O)O)s1)c1ccccc1	inconclusive [inhibitor, single point]	–
COc1ccc(Cl)cc1NC(=O)CN(C)C(=O)CSc1ccc2c(c1)OCCO2	inconclusive [inhibitor, single point]	–
Cc1ccc(C)c(Cn2nnc(C(=O)Nc3ccc4c(c3)OCCO4)c2N)c1	inconclusive [inhibitor, single point]	–

Compound	Potency	activity change, negative = inhibition
O=C(NCCC1CCCCN1S(=O)(=O)c1ccccc1)C(=O)NCc1ccc(F)cc1 (stereo not given)	active: 10.4 µM	–
O=C(COc1ccc(Br)cc1Cl)NC1CCN(Cc2ccccc2)CC1	inconclusive [inhibitor, full curve, poor fit]	–
CCCCn1c(N)c(N(CCOC)C(=O)COC(=O)CCOc2ccccc2C)c(=O)[nH]c1=O	–	inactive: -8.97%
CC(=O)Nc1nc2ccccc2n1CCOc1ccccc1Cl	active: 3.7 µM	–
O=C(/C=C/c1ccncc1)c1ccc(NC(=O)c2ccccc2F)cc1	–	inactive: 6.97%
c1ccc(-c2noc(CSc3nnc(Cc4cccs4)n3-c3ccccc3)n2)cc1	inconclusive [inhibitor, single point]	–
CN(C)CCNC(=O)C(=O)Nc1ccc2c(c1)N(S(=O)(=O)c1cccs1)CCC2	inconclusive [inhibitor, single point]	–
COc1ccc(C2=NN(C(=O)CSc3nnnn3C)C(c3ccco3)C2)cc1 (stereo not given)	–	inactive: -10.9%
CN(C)S(=O)(=O)c1ccc(NC(=O)c2ccc3ncsc3c2)cc1	inconclusive [inhibitor, single point]	–
COC(=O)c1cc(OC)c(OC)cc1NC(=O)CCC1CCCC1	inconclusive [inhibitor, partial curve, poor fit]	–
O=C(NCC(c1ccco1)N1CCCCC1)c1cccc(S(=O)(=O)Nc2ccccc2Cl)c1 (stereo not given)	inconclusive [inhibitor, partial curve, poor fit]	–
Cc1ccc(OCC(=O)N/N=C2\CC(=O)CC(C)(C)C2)c(Br)c1	–	inactive: -0.974%
CCOC(=O)C1(Cc2ccccc2C)CCCN(C(=O)c2ccc(OC)o2)C1 (stereo not given)	inconclusive [inhibitor, full curve, poor fit]	–
O=C(Oc1cccc(Nc2ncnc3ccccc23)c1)c1cccnc1	inconclusive [inhibitor, partial curve, poor fit]	–
CC(=O)c1cn(CC(=O)Nc2ccccc2C)c2ccccc12	inconclusive [inhibitor, single point]	–
COc1ccccc1-c1noc2ncnc(Nc3cccc(C)c3)c12	inconclusive [inhibitor, partial curve, poor fit]	–
CCN1CCc2nc(NC(=O)c3ccc4c(c3)OCCO4)sc2C1	–	inactive: 140%
COc1ccc(-c2nnc(SC(C)C(=O)NC3CC3)o2)cc1 (stereo not given)	active: 10.4 µM	–
CC(C)N(C(=O)CSc1nnc(NC(=O)Cc2cccs2)s1)C(C)C	–	inactive: 0%
O=C(NCc1ccco1)c1ccc2nc3sc4c(c3c(=O)n2c1)CCCC4	–	inactive: -71.8%
O=C(C1=C[C@H](C2CC2)C[C@H](OCc2ccc(CO)cc2)O1)N1CCN(Cc2ccc3c(c2)OCO3)CC1	inconclusive [inhibitor, partial curve, poor fit]	–
C/C(=N\NC(=O)c1ccc(N/N=C(\C)c2ccc(O)cc2)cc1)c1ccc(O)cc1	–	inactive: -7.43%

From PubChem BioAssay AID504832 (National Center for Advancing Translational Sciences (NCATS), 2011)
